# In all, about 310,000 compounds went through this assay and about 2,200 (0.71%) showed an effect of 50% or more. Effects have a minus sign here. The list shows a part of the results.
# Target: human ether-à-go-go-related gene (hERG) potassium channel (human, UniProt Q12809)
# Experiment: primary screen, population patch clamp on CHO cells stably expressing hERG
# Sequence of human ether-à-go-go-related gene (hERG) potassium channel (Q12809 whole entry, looked up): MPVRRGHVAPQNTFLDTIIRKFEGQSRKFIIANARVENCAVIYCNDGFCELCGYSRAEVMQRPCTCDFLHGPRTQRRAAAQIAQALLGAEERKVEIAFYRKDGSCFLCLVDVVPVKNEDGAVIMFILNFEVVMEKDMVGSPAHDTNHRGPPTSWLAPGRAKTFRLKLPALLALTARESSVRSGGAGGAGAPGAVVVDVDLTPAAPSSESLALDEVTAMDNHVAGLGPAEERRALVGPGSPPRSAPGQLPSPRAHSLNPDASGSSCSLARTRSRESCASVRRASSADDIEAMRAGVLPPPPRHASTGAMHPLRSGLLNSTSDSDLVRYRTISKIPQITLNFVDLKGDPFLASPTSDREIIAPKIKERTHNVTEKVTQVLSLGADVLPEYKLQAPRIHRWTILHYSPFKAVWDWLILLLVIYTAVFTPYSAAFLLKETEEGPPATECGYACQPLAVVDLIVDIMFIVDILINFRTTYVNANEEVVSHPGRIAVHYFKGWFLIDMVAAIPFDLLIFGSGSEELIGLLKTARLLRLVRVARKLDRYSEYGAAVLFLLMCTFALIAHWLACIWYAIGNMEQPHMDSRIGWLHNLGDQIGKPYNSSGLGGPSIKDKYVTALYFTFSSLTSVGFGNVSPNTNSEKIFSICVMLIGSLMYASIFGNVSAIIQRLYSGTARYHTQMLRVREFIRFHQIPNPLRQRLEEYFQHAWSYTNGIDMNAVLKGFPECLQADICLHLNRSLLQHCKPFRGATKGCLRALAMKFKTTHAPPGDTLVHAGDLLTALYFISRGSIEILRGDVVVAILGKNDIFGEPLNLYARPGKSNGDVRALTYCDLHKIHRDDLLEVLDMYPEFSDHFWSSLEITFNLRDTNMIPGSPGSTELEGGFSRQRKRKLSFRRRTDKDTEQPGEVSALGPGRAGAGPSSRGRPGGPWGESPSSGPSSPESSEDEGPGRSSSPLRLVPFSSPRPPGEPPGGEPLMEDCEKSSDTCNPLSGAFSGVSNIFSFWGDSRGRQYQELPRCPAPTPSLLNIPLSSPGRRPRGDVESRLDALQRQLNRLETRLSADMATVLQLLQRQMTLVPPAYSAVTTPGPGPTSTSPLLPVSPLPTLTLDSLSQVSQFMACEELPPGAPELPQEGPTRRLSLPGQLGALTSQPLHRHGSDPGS
row,SMILES,"hERG current change (%, negative = inhibition) at 1uM [%]"
1,O=C(NC1CCCCC1)C(c1ccc(F)cc1)N(C(=O)c1csnn1)C1CCCC1 (stereo not drawn),2.6
2,CCOC(=O)N1CCN(C(=O)c2ccc(N3CC4CC(C3)c3cccc(=O)n3C4)c(NC(=O)c3ccc(F)cc3)c2)CC1 (stereo not drawn),8.17
3,CS(=O)(=O)c1cnc2c(-c3ccc(F)cc3)cnn2c1N,-0.312
4,Oc1c(Br)cc(Br)cc1CNc1ccccn1,13.1
5,CC(C)N=C1NN=C(c2cccs2)CS1,28.3
6,Cc1ccc(CCNC(=O)CC2Oc3ccc(C)cc3NC2=O)cc1 (stereo not drawn),9.29
7,O=c1c2ccc([N+](=O)[O-])cc2ncn1CCOc1ccc(Cl)cc1,-4.78
8,CCc1sc(C(=O)N2CCN(S(C)(=O)=O)CC2)cc1Br,2.17
9,Cc1nnc(NC(=O)c2ccc(S(=O)(=O)N3CCCCCC3)cc2)o1,3.18
10,CC(C)C(=O)Nc1ccc(O)c(-c2csc(N)n2)c1,14.3
11,CCCCOc1cccc(-c2nnc(N)s2)c1,5.55
12,O=[N+]([O-])c1cccc(C2=NCCS2)c1,3.2
13,COc1ccc(/C=C\C(=O)NCc2ccc3c(c2)cc(C)n3C)cc1OC,10.2
14,Cn1ccnc1SCC(=O)Nc1ccc2c(c1)OCCO2,5.28
15,COC(=O)c1ccc(OCC(O)CN2C(=O)c3ccccc3C2=O)cc1 (stereo not drawn),14.5
16,O=C(Cn1cnc2ccccc2c1=O)OCC(=O)c1ccc2c(c1)OCCO2,12.8
17,Cc1ccc(-n2ncc3c(SCc4cccc(C)c4)ncnc32)cc1,5.37
18,COc1ccccc1CNC(=O)c1cc(-c2ccccc2)n(Cc2cc(C)no2)n1,5.65
19,Cc1cccc[n+]1C1C(c2ccc([N+](=O)[O-])cc2)C(C#N)=C(C(=C=[N-])C#N)NC1(O)C1CC1 (stereo not drawn),4.67

row,SMILES,"hERG current change (%, negative = inhibition) at 1uM [%]"
1,Br.CCCCn1c(=N)n(CC(=O)c2ccc([N+](=O)[O-])cc2)c2ccccc21,-33.1
2,Cc1nc2sccc2c(=O)n1N,15.6
3,COc1cc(OC)cc(C(=O)N2CCN(S(C)(=O)=O)CC2)c1,7.32
4,CCn1c(SCC(=O)OC(C)C)nnc1-c1ccccc1,8.68
5,O=C(O)CCC(=O)N1CCc2cc(S(=O)(=O)NCc3cccs3)ccc21,12.7
6,CCN(CC)C(=O)c1csc(Nc2cccc3ccccc23)n1,13.2
7,CCN(CC)CCCNC(=S)N(CCO)Cc1cc2cc3c(cc2[nH]c1=O)OCCO3,9.62
8,CC(C)N1C(=O)S/C(=C/c2ccc(Sc3nc4ccccc4[nH]3)o2)C1=O,4.84
9,O=C(CSc1nncs1)Nc1nccs1,15.8
10,CC(=O)c1ccc(OCC(=O)OC(C)C(=O)NC2CCCCC2)cc1 (stereo not drawn),-3.11
11,O=[N+]([O-])c1ccccc1S(=O)(=O)Oc1ccc(/C=N/n2cnnc2)cc1,-3.71
12,O=C(Nc1ccc(C(=O)O)cc1)/C(=C\c1ccccc1)NC(=O)c1ccccc1,-2.26
13,COc1ccc(CN(N=O)C2CC(=O)N(c3ccc(OC)cc3)C2=O)cc1 (stereo not drawn),15.2
14,Cc1cc(Cl)ccc1C(=O)C1CCCN(C(=O)CCn2cncn2)C1 (stereo not drawn),-11.6
15,Cc1ccn2cc(C(=O)NCc3ccco3)nc2c1,10.3
16,O=C1C=CC(=O)N1c1ccc(N2CCCCC2)cc1,4.62
17,Cc1ccc(NC(=O)c2ccc(Cn3cc(Cl)cn3)o2)c(C)c1,8.12
18,CC(C)N1CCN(Cc2cc3c(cc2Cl)OCO3)CC1CCO (stereo not drawn),5.63
19,Cc1cccc(C(=O)Nc2ccc3c(c2)C(=O)N(CC(C)C)C3=O)c1,17.1

row,SMILES,"hERG current change (%, negative = inhibition) at 1uM [%]"
1,CC(C)(C)NC(=O)c1cc(Cl)ccc1[N+](=O)[O-],-10.3
2,C=CCN1C(=O)/C(=C\c2ccc(Oc3nc(N4CCOCC4)nc(N4CCOCC4)n3)c(OC)c2)SC1=S,17
3,N#CC[C@H](Cc1ccccc1)N1CCN(CCc2ccccc2)CCC1=O,16.1
4,CCC(C)(C)n1nnnc1C(c1ccc(OC)c(OC)c1)N1CCN(c2cccc(OC)c2)CC1 (stereo not drawn),2.94
5,CC(=O)NC1C(OCCOc2ccc(Cl)cc2C)OC(CO)C(O)C1O (stereo not drawn),12.9
6,COc1ccc(C/C(C)=N/NC(=O)C2COc3ccccc3O2)cc1 (stereo not drawn),9.03
7,Cc1ccc(C(=O)NCCNc2nc3cc(C)c(C)cc3cc2C)cc1,0.614
8,COCCn1c(-c2ccc(Cl)cc2)nc2c(c(=O)c3ccccc3n2C)c1=O,9.55
9,COc1cc(-c2noc(CCC(=O)NC3CCCC3)n2)cc(OC)c1OC,5.34
10,CCOc1cc2[nH]c(=O)n(CCCC(=O)NCc3ccc(OC)cc3)c(=O)c2cc1OCC,13.2
11,O=C(NCc1ccco1)c1cc(-c2ccccc2)nn1CC1CC(c2cccnc2)=NO1 (stereo not drawn),-40
12,Cc1cc(Cl)ccc1OCCCC(=O)NNC(=O)c1ccncc1,-1.24
13,CC(=O)Nc1ccccc1C(=O)OCc1cccc(F)c1,-5.07
14,COCCn1c(C)cc(C(=O)CSc2ccc3ccccc3n2)c1C,-3.05
15,COc1ccc2[nH]c(=O)c(CN(c3ccc(C)c(C)c3)S(C)(=O)=O)cc2c1,7.75
16,CCCCC(=O)Nc1c(O)c2ccccc2[nH]c1=O,1.78
17,CCOC(=O)CC1(NC(=O)c2cc(COc3cccc(OC)c3)on2)CCCCC1,10.3
18,COc1ccc(N(CC(=O)NC2CCCCC2)C(=O)CNC(=O)c2ccco2)c(OC)c1,9.86
19,COc1ccccc1N1CCN(C(=O)CSc2nnc(NC(=O)C3CC3)s2)CC1,5.31

# Reference: paper PMC4336329 (PLoS ONE, 2015)
